SMILES strings stand for the structures. In all, about 1,200 compounds went through this assay and about 210 (18%) were called active. No stated cut-off is given here; in the data, active means inhibition above about 30%; inactive means the rest. Only a part is listed here, and it is no random draw.

The inhibition is the drop in the measured response relative to a control, in per cent.

A short description of the assay: HTRF signal interference by compounds, confirmation, artefact control for SUMOylation inhibitor project, biochemical, uHTS (AID 2069). To be noted: HTRF interference counterscreen, fluorescence, at 35 µM, active compounds read high. Background: Time-resolved FRET reads energy transfer from a long-lived donor to a nearby acceptor.
Consider `O=C1N=c2ccccc2=C1c1sc(Nc2ccc(O)cc2)nc1O`, for which the inhibition is inactive: -1.9%.
`Cc1nnc(N/N=C\c2ccc(-c3ccccc3[N+](=O)[O-])o2)n1N`: the inhibition is inactive: 16%.
Take `O=C1/C(=C\c2ccco2)SC(=S)N1C1CCS(=O)(=O)C1` (configuration not stated): the inhibition is inactive: -10.2%.
For the compound `CC(=O)NC1C(=O)N(CCN2CCOCC2)c2ccc(Br)cc21` (configuration not stated), the inhibition is active: 32.2%.
Take `O=C(O)/C=C/c1cn(-c2ccccc2)nc1-c1cc2ccccc2o1`: the inhibition was active: 41.2%.
Under `C/C(=N\NC(=O)c1cc(O)cc(O)c1)c1ccc(NC(=O)Cc2ccccc2)cc1` stands inactive: 25.6%; under `N=C1/C(=C\c2ccc(SCc3ccco3)o2)C(=O)N=C2SC=NN12`, inactive: 2.25%.
Next, `Cc1ccsc1C=Nc1ccc(O)cc1`: inactive: 6.8%.
For the compound `Cn1c(C(=O)N2COCC2(C)C)cc2c(=O)n3ccccc3nc21`, the inhibition was active: 55.8%.
For the compound `COc1ccc2nc(-c3ccco3)c(-c3ccco3)nc2c1`, the inhibition was active: 33.1%.
Next, `CN(C)/C=N/c1nc2nccc(-c3cccc(Cl)c3)n2n1`: active: 57.1%; `COc1ccccc1NC(=O)Nc1ccnn1Cc1cccs1`: active: 63.1%; `CCOC(=O)c1c(NC(=O)c2ccco2)n(C2CCCCC2)c2nc3ccccc3nc12`: inactive: 21.2%.
Next, `Fc1ccc(-c2nc3cnccn3c2NC2CCCC2)cc1`: active: 57.9%; `COc1ccc2c(c1)Cc1sc(NC(=O)c3ccco3)nc1-2`: inactive: 0.75%; `O=C(COc1ccc2oc(-c3ccco3)cc(=O)c2c1)N1CCCCC1`: active: 39.8%.
As to `CCOC(=O)c1c(-c2ccccc2)oc2ccc(OC(C)C(=O)O)cc12` (configuration not stated), the inhibition is active: 58.6%.
`Oc1oc(-c2ccccc2)nc1C=Nc1cccc2ccccc12`: the inhibition was inactive: 10.8%.
In the case of `CC(/C=C1\SC(=S)N(C(C(=O)O)c2ccccc2)C1=O)=C\c1ccccc1` (configuration not stated), the inhibition was inactive: -3.8%.
On to `CC(=O)c1ccc(N2CCN(C(=O)c3cccs3)C(C)C2)c(F)c1` (configuration not stated), for which the inhibition is inactive: 23.4%.
`COCCn1nnnc1C(c1cc2ccc(OC)cc2[nH]c1=O)N1CCc2ccccc2C1` (configuration not stated): the inhibition was inactive: 3.8%.
Next, `COc1ccc(-n2c(NC(=O)c3ccco3)c(C#N)c3nc4ccccc4nc32)cc1`: inactive: 4.15%; `COc1ccc(Cn2c(C)c(C)c(C#N)c2NC(=O)Nc2ccc(F)cc2)cc1`: inactive: 1.75%; `O=C(Nc1ccccc1)Oc1ccc[nH]c1=O`: inactive: 16.8%.
For `O=C1CC(c2ccco2)CC(O)=C1C=NCC1NCCc2ccccc21` (configuration not stated), the inhibition was inactive: 14.2%.
For `Cc1nn(-c2ccccc2)c2c1C(c1ccc(F)cc1)C(C#N)=C(N)O2` (configuration not stated), the inhibition was inactive: -6.15%.
Next, `Cc1c(C(=O)O)cccc1-c1ccc(/C=C2\SC(=O)NC2=O)o1`: inactive: -1%; `CC1(C)Nc2ccc(O)cc2-c2c1ssc2=S`: inactive: -19.1%.
As for `Cc1[nH][nH]c(=O)c1C(c1ccc(-c2ccc(F)cc2)o1)c1c(C)[nH][nH]c1=O`, the inhibition was inactive: -13.8%.
In the case of `Oc1ccc2ccccc2c1C=Nc1ccc(Cl)cn1`, the inhibition is active: 37.1%.
Regarding `COc1ccc(/C=C/c2cc(C(=O)O)c3ccccc3n2)cc1`, the inhibition was active: 68.2%.
On to `N#CC1=C(N)Oc2n[nH]c(-c3cccs3)c2C1c1cccs1` (configuration not stated), for which the inhibition is inactive: -14.2%.
For `COc1ccc(-n2c3nc4ccccc4nc3c3c(=N)oc(C)nc32)cc1`, the inhibition is inactive: -1.2%.
Next, `Clc1ccc(C2=CSC3=Nc4cccc5cccc(c45)N23)cc1`: inactive: -14.9%; `COc1ccc(-c2nc3ccc([N+](=O)[O-])cc3[nH]2)cc1`: inactive: 23.2%; `COC12NC(=O)N(C)C1(OC)C(=O)N(C)C(=O)N2C` (configuration not stated): inactive: -5.9%.
Regarding `Clc1ccc(-c2nnc3c4ccccc4nc(N4CCOCC4)n23)cc1Cl`, the inhibition was inactive: -0.4%.
As to `O=C1C=C(N2CCOCC2)c2ccccc2C1=O`, the inhibition was active: 51.9%.
Under `CNCc1ccccc1Sc1ccc(O)c(O)c1` stands inactive: 14.3%; under `CN(CCO)c1nc(N)c2c(N)nc3c(c2c1C#N)CC(=O)N3C1CCCC1`, active: 43.9%.
With `O=C(Nc1cccc2nsnc12)c1ccc(-c2cccc(Cl)c2)o1`, the inhibition is inactive: 25.9%.
For the compound `CCn1c2ccccc2c2c3ncc4cccn4c3ccc21`, the inhibition is active: 31.1%.
For `COc1ccc(O)c(C(c2c(C)[nH][nH]c2=O)c2c(C)[nH][nH]c2=O)c1`, the inhibition was inactive: -9.05%.
Regarding `O=C(O)CCCCCNc1ccc2nsnc2c1[N+](=O)[O-]`, the inhibition was inactive: 6.25%.
Next, `O=C(NC1(O)C(=O)c2ccccc2C1=O)c1c(Cl)cccc1Cl`: active: 50.4%; `O=C(O)CCCCC1CCSS1` (configuration not stated): inactive: 20.6%.
Turning to `NC(N)=N/N=C/c1cc([N+](=O)[O-])ccc1O`, the inhibition was inactive: -11.6%.
Regarding `Cc1ccc(CSc2nnc(SCC(=O)N/N=C/c3c[nH]c4ccccc34)s2)cc1`, the inhibition is inactive: -3.9%.
Next, `Cc1cccn2c(=O)c3cc(S(=O)(=O)c4ccc(F)cc4)c(=N)n(Cc4ccco4)c3nc12`: inactive: 16%.
In the case of `CN(C)c1ccc(NC(=O)CSc2nnc(-c3ccco3)c(-c3ccco3)n2)cc1`, the inhibition was inactive: -11.5%.
As for `NC(CO)C(=O)NNCc1ccc(O)c(O)c1O` (configuration not stated), the inhibition was inactive: 13.7%.
As to `O=C1C(Cl)=C(N2CCC(C(=O)O)CC2)C(=O)c2ccccc21`, the inhibition was inactive: 1.75%.
For `COc1cc(CNc2ccc(O)cc2)cc(Br)c1OCc1ccccc1`, the inhibition is inactive: -13.9%.
Next, `O=C1/C(=C/c2ccco2)Oc2c1ccc(O)c2CN1CCCCC1`: active: 37.6%; `CN(C)/C=C1/Oc2c(ccc3ccccc23)C1=O`: inactive: -16.7%.
For the compound `COc1ccc(-c2ccc(C(c3c(C)[nH][nH]c3=O)c3c(C)[nH][nH]c3=O)o2)c([N+](=O)[O-])c1`, the inhibition was inactive: 1.45%.
Regarding `Cc1oc2c(c(C)cc3oc(=O)c(CC(=O)NCC(=O)NCC(=O)NCC(C)O)c(C)c32)c1C` (configuration not stated), the inhibition is active: 47.8%.
Take `COc1cccc(CNc2cccc3cccnc23)c1O`: the inhibition was inactive: -9.2%.
As for `Cc1ccccc1C(=O)Nc1nnc(CC(=O)N/N=C/c2cn(Cc3ccccc3)c3ccccc23)s1`, the inhibition is inactive: 3.35%.
Turning to `CC(C)NC(=O)N1CCC(n2nccc2NC(=O)CCOc2ccccc2)CC1`, the inhibition was inactive: -7.8%.
Turning to `Fc1ccc(NC(=S)Nc2cccc3ccccc23)cc1`, the inhibition was inactive: 2.35%.
`Cc1cccc(N(C)C(=O)c2cc3c(=O)[nH]c4ccc(C)cc4c3s2)c1`: the inhibition was inactive: -2.9%.

Values taken from PubChem BioAssay AID2069 (Sanford-Burnham Center for Chemical Genomics, 2009).
